Measured values as given in ChEMBL document CHEMBL5606460, “ASAP - DENV-2 NS2B-NS3 protease fluorescence single point” (2024).
Hit rate of the full screen: of about 2,000 compounds, about 110 (5.5%) showed an effect of 50% or more. This is one part of the list.

Target: Genome polyprotein (dengue virus type 2) (UniProt P29990)
[1] = Thailand/16681/1984, Concentration 25.0 uM, Number of replicates 1.0

Structure (SMILES): Cc1cc(CO)c2cccc(NCc3c(C)noc3C)c2n1
- inhibition (Thailand/16681/1984, Concentration 49.95 uM, Number of replicates 2.0, Standard deviation 0.8427159521442895 %): 0.852%
- inhibition (Thailand/16681/1984, Concentration 99.9 uM, Number of replicates 2.0, Standard deviation 0.2103451428490176 %): 5.75%

Structure (SMILES): N#Cc1ccc(C[C@H](NC(=O)c2ccccc2)C(=O)N2CCC[C@@H](CN)C2)cc1
- inhibition (Thailand/16681/1984, Concentration 49.5 uM, Number of replicates 2.0, Standard deviation 1.2392432810036351 %): -3.41%
- inhibition (Thailand/16681/1984, Concentration 99.01 uM, Number of replicates 2.0, Standard deviation 1.3682310134729216 %): -3.89%
- inhibition (Thailand/16681/1984, Concentration 198.0 uM, Number of replicates 2.0, Standard deviation 0.950885838847499 %): -4.55%

Structure (SMILES): CNC(=O)c1cc(Cl)ccc1NS(=O)(=O)c1[nH]ncc1C(=O)OC
- inhibition (Thailand/16681/1984, Concentration 49.5 uM, Number of replicates 2.0, Standard deviation 1.242021000664882 %): -1.06%
- inhibition (Thailand/16681/1984, Concentration 99.01 uM, Number of replicates 2.0, Standard deviation 0.08117786480507469 %): 0.923%
- inhibition (Thailand/16681/1984, Concentration 198.0 uM, Number of replicates 2.0, Standard deviation 0.003820190349027435 %): 2.41%

Structure (SMILES): O=Cc1ccc(N2CCC(C(=O)Nc3ccc(F)cc3Br)CC2)cc1
- inhibition [1]: 11.5%

Structure (SMILES): Cn1cc(NC(=O)c2ccccc2C(F)(F)F)c(-c2cccc3cc[nH]c23)n1
- inhibition (Thailand/16681/1984, Concentration 49.5 uM, Number of replicates 2.0, Standard deviation 3.1084528093012986 %): -0.205%
- inhibition (Thailand/16681/1984, Concentration 99.01 uM, Number of replicates 2.0, Standard deviation 3.574033871935681 %): 0.463%
- inhibition (Thailand/16681/1984, Concentration 198.0 uM, Number of replicates 2.0, Standard deviation 2.53248645301858 %): 3.8%

Structure (SMILES): c1cc(C2CCN(Cc3c[nH]c4ccccc34)CC2)c2ccncc2c1
- inhibition (Thailand/16681/1984, Concentration 49.5 uM, Number of replicates 2.0, Standard deviation 0.5847129231667904 %): 1.3%
- inhibition (Thailand/16681/1984, Concentration 99.01 uM, Number of replicates 2.0, Standard deviation 0.7302727121768634 %): 3.47%
- inhibition (Thailand/16681/1984, Concentration 198.0 uM, Number of replicates 2.0, Standard deviation 0.8919143055858442 %): 5.67%

Structure (SMILES): COc1ncc(NC(=O)C2CCN(c3ccc(C=O)cc3)CC2)cc1Br
- inhibition [1]: 9.05%

Structure (SMILES): CNC(=O)c1cc(Cl)ccc1NS(=O)(=O)c1cccc(S(N)(=O)=O)c1
- inhibition (Thailand/16681/1984, Concentration 49.5 uM, Number of replicates 2.0, Standard deviation 0.4003966624337367 %): 1.73%
- inhibition (Thailand/16681/1984, Concentration 99.01 uM, Number of replicates 2.0, Standard deviation 1.0615056375609497 %): 3.26%
- inhibition (Thailand/16681/1984, Concentration 198.0 uM, Number of replicates 2.0, Standard deviation 0.04640199433655389 %): 5.28%

Structure (SMILES): Cc1cc(CO)c2cccc(Cc3cccc(NC(=O)C(=O)c4ccco4)c3)c2n1
- inhibition (Thailand/16681/1984, Concentration 49.95 uM, Number of replicates 2.0, Standard deviation 2.5499602835301056 %): -0.234%
- inhibition (Thailand/16681/1984, Concentration 99.9 uM, Number of replicates 2.0, Standard deviation 0.7837509937910023 %): -0.946%

Structure (SMILES): Cc1ccc2n1CCN(C(=O)C1CCN(c3ccc(C=O)cc3)CC1)[C@H]2C
- inhibition [1]: 3.87%

Structure (SMILES): O=Cc1ccc(N2CCC(C(=O)N3CCN(S(=O)(=O)N4CCOCC4)CC3)CC2)cc1
- inhibition [1]: 13.5%

Structure (SMILES): c1ccc(CN2CC[C@H](c3c[nH]c4ccccc34)C2)nc1
- inhibition (Thailand/16681/1984, Concentration 49.5 uM, Number of replicates 2.0, Standard deviation 0.540853837861717 %): 0.05%
- inhibition (Thailand/16681/1984, Concentration 99.01 uM, Number of replicates 2.0, Standard deviation 0.7402869166527072 %): 0.515%
- inhibition (Thailand/16681/1984, Concentration 198.0 uM, Number of replicates 2.0, Standard deviation 1.8615560399297217 %): 2.31%

Structure (SMILES): COc1ccc(-c2ccccc2C(=O)Nc2cnn(C)c2)cc1F
- inhibition (Thailand/16681/1984, Concentration 49.5 uM, Number of replicates 2.0, Standard deviation 4.242255928539229 %): 2.06%
- inhibition (Thailand/16681/1984, Concentration 99.01 uM, Number of replicates 2.0, Standard deviation 0.9271676998479934 %): 0.017%
- inhibition (Thailand/16681/1984, Concentration 198.0 uM, Number of replicates 2.0, Standard deviation 0.9178960464517486 %): 0.177%

Structure (SMILES): CNC(=O)c1cccc(CCC(=O)Nc2cc(Cl)cc(C(=O)NC(C)(C)CO)c2)c1
- inhibition (Thailand/16681/1984, Concentration 49.5 uM, Number of replicates 2.0, Standard deviation 19.518689391215933 %): 8.34%
- inhibition (Thailand/16681/1984, Concentration 99.01 uM, Number of replicates 2.0, Standard deviation 1.6573341598197608 %): -0.495%
- inhibition (Thailand/16681/1984, Concentration 198.0 uM, Number of replicates 2.0, Standard deviation 1.0104917664729398 %): -3.06%

Structure (SMILES): Cc1nnc(Cn2cc(C3CCNCC3)c(C)n2)s1
- inhibition (Thailand/16681/1984, Concentration 49.5 uM, Number of replicates 2.0, Standard deviation 0.1829917327983261 %): -0.443%
- inhibition (Thailand/16681/1984, Concentration 99.01 uM, Number of replicates 2.0, Standard deviation 0.5888347947305582 %): -0.409%
- inhibition (Thailand/16681/1984, Concentration 198.0 uM, Number of replicates 2.0, Standard deviation 0.0063413305332520944 %): -0.948%

Structure (SMILES): Cc1cc(CO)c2cccc(Cc3ccccc3C(=O)Nc3nonc3C(N)=O)c2n1
- inhibition (Thailand/16681/1984, Concentration 49.95 uM, Number of replicates 2.0, Standard deviation 0.20481615067396447 %): 9.42%
- inhibition (Thailand/16681/1984, Concentration 99.9 uM, Number of replicates 2.0, Standard deviation 0.252245853764608 %): 28.4%

Structure (SMILES): COCCOCCOCCNC(=O)C1CCN(c2ccc(C=O)cc2)CC1
- inhibition [1]: 12.8%

Structure (SMILES): Cc1cc(N)c2ccc(Cl)c(Cl)c2n1
- inhibition (Thailand/16681/1984, Concentration 49.95 uM, Number of replicates 2.0, Standard deviation 7.937403511191421 %): -5.89%
- inhibition (Thailand/16681/1984, Concentration 99.9 uM, Number of replicates 2.0, Standard deviation 7.875707869059826 %): -5.65%

Structure (SMILES): CC(C)Cn1cccc(C(=O)Nc2ccncc2C2CC2)c1=O
- inhibition (Thailand/16681/1984, Concentration 49.5 uM, Number of replicates 2.0, Standard deviation 1.2909448200719489 %): 4.27%
- inhibition (Thailand/16681/1984, Concentration 99.01 uM, Number of replicates 2.0, Standard deviation 4.556150504456328 %): 2.96%
- inhibition (Thailand/16681/1984, Concentration 198.0 uM, Number of replicates 2.0, Standard deviation 3.815802862097451 %): 0.046%

Structure (SMILES): Cn1cc(NC(=O)c2ccccc2C(F)(F)F)c(C=Cc2cc(F)cc(F)c2)n1
- inhibition (Thailand/16681/1984, Concentration 49.5 uM, Number of replicates 2.0, Standard deviation 3.560297076041071 %): -3.17%
- inhibition (Thailand/16681/1984, Concentration 99.01 uM, Number of replicates 2.0, Standard deviation 3.05890219249989 %): -4.03%
- inhibition (Thailand/16681/1984, Concentration 198.0 uM, Number of replicates 2.0, Standard deviation 1.749976473181981 %): -0.417%
